# The list shows a part of the results.
# System: PfSIP2 AP2 domain 1 (GST-tagged)
# Test: gcPBM binding intensity (ln(normalized median fluorescence intensity)); higher = stronger DNA binding
# In short: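 GST-tagged P. falciparum DNA-binding domains, expressed in E. coli (about 25 μg on average), were applied for 1 h to an Agilent 4 × 180k array of primer-extended double-stranded 36-bp intergenic genomic probes plus negative controls. The binding buffer was 1× PBS with 1% milk, 0.2 mg/ml BSA, 0.5% salmon testes DNA and 0.03% Triton X-100. Bound protein was detected with Alexa488 anti-GST antibody and scanned at 488 nm. Binding intensity is the highest Masliner-normalised natural-log median intensity across replicate spots of either probe orientation.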
row,Sequence,gcPBM binding intensity (ln)
1,ACATAATAAAAATGACGTACAATTTTTTTTTTTCAT [XGTACX_site8340],7.01
2,CATTAAAAAGAAAGTTCACACACATATATATGACGG [CACACA_site8836],6.93
3,ATATATTATTATAACTGTACTTTTTTTGTGGTTAAT [XGTACX_site8266],7.26
4,TATGCGTATATATAAATACACACCAAATGTTAATAT [CACACA_site1713],6.98
5,CCATTTACATTGTGAAGTACTAAAAAAAAATGTAGA [XGTACX_site7882],7.12
6,ACAAGGAATATAAAAAGTACATAAAATACATAAAAA [XGTACX_site1217],7.3
7,TATGGATGTATTCATACATGCACACGTACATATTTA [TGCATGCA_site991],6.94
8,ATAATTTGATGGTTAACACACATATATATTATATAT [CACACA_site2449],7.07
9,ATATAAATATAAATATATATGTATAAATATAAATAT [CACACA_negctrl_site247],6.96
10,TATATATATATATATACACACAAAAAAATAAATTCT [CACACA_site98],8.98
11,ATTTATTTTAATAATTGTACATGTTATTTTATATAT [XGTACX_site2667],7.14
12,TACTTTTCATCTTCTTAACACACAAAAAAAAAAAAA [CACACA_site9290],7.5
13,ATCATTTTTAAAGGAACACACAAAAAAAGTTATAAT [CACACA_site6761],7.06
14,ATACATCAAGGACACACACACACACGCACACGCACA [CACACA_site6310],8.3
15,AAACTATTCACTATAATACATTAGAAGTGAATAAAA [TGCATGCA_negctrl_site498],6.84
16,TTATGATGGTCTTTATAAGGGCACATTAAATTCGGC [TGCATGCA_negctrl_site166],7.31
17,AGAAATTAATCGAGGTGTACGTACATCCAAATATAT [XGTACX_site7650],7.04
18,TATATATAAATATTCAGTACATAGTGCTATTAAGTG [XGTACX_site1979],7.34
19,CCATTATATCTAAGTACACACATTAATTTTTTTTTT [CACACA_site6115],7.14
20,ATATATTTAACAAGATGTACAATTTTATAAAAAATA [XGTACX_site2351],6.97
21,AATAGCAATTTGGGGTGTACACACACCTTATTTAAA [XGTACX_site2234],6.77
22,TGAAAAGGAAATTGTTGTACATATGTTTCTTCCTAA [XGTACX_site3932],6.84
23,TTTTTATAAAAAAATAGTACTCGTCTAATCTTATGT [XGTACX_site8532],7.38
24,CTGTATAAAACCAATGCATGTAAATATATTAATATA [TGCATGCA_site511],7.06
